# Source: PubChem BioAssay AID1347120 (National Center for Advancing Translational Sciences (NCATS), 2019)
# Where “and” joins values, the source holds several entries; their conditions need not be identical. Equal values may be shown once. About 930 (0.24%) of roughly 390,000 compounds were called active. The inconclusive results got no clear call from the source; some entries with a clear call stand among them for comparison. Calls follow the shape of the dose curve; as a rule, active = well fitted activation curve with a large enough effect; inconclusive = small, poorly fitted or top-dose-only effect; inactive = no such curve, though single readings can be large or run the other way. Potencies beside an inconclusive call are fits to weak or partial responses and may not hold up.
# Experiment: qHTS for Suppressors of FUS Proteinopathy: Primary screen using FUS-linked yeast assay; also: nearly all actives have a fitted effect of over 55% in size
# Conditions: S. cerevisiae FUS-expressing, OD600, 24 h; Potency: growth rescue; series mostly up to 76.6 µM
# Outline: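 Absorbance at 600 nm, taken 24hr after compound addition, measured rescue of FUS-yeast growth at 30C. Induction used 2% galactose with seeding at OD 0.005. Controls: CP55940 from 92uM final, DMSO only.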
# Potency is read from the fitted curve at half-maximal effect; tags tell the direction and shape of the fitted curve.
row,SMILES,Potency
1,CCCCOc1ccc(CN2C(=O)C(=O)c3cc(Br)cc(C)c32)cc1OC,inactive
2,CCOc1ccccc1NC(=O)CCCNC(=O)Cn1cnc2sc(C)c(C)c2c1=O,"inconclusive: 28.2 µM [activator, partial curve, poor fit]"
3,COc1ccc(-c2cc(C(=O)N(C)CC(=O)Nc3cccc(F)c3)c3ccccc3n2)cc1OC,"inconclusive: 28.2 µM [activator, single point]"
4,CCCCCCSc1cc(-c2nc3ccc(C)cn3c2NCCCC)ccc1OC,"inconclusive: 25.1 µM [activator, partial curve]"
5,CN(C(=O)C1Cc2c(-c3ccc(Cl)cc3)ccnc2O1)c1ccccc1 (stereo not given),inactive
6,CC(C)(Oc1ccc(Cl)cc1)C(=O)N1CCN(c2ccccn2)CC1,inactive
7,O=C1C2ON(c3ccc(Cl)cc3)C(c3ccco3)C2C(=O)N1c1ccccc1 (stereo not given),"inconclusive: 39.8 µM [activator, single point]"
8,COc1cccc(CNC(=O)CN(C)S(=O)(=O)c2ccc3[nH]c4c(c3c2)CCCC4)c1,"inconclusive: 25.1 µM [activator, single point]"
9,Cc1c(C)n(C(=O)CSc2nc3ccccc3[nH]2)c2ccccc12,inactive
10,COc1ccc(OC)c(C2=NO[C@@H]3C(=O)N(c4cc(Cl)ccc4OC)C(=O)[C@H]23)c1,"inconclusive: 22.4 µM [activator, partial curve]"
11,CCOc1ccccc1NC(=O)c1c(NC(=O)C(C)Oc2ccc(Cl)cc2)sc2c1CCCCC2 (stereo not given),inactive
12,COc1cc2c(cc1OC)C(=O)N1[C@H]3c4cc(Cl)ccc4OC[C@@H]3[C@H](c3ccccc3)[C@]1(C)C(=O)N2,"inconclusive: 39.8 µM [activator, single point]"
13,COc1ccc(C2/C=C\CN(S(=O)(=O)c3ccc(C)cc3)CC(=O)N2Cc2cccc(F)c2)cc1 (stereo not given),"inconclusive: 17.8 µM [activator, partial curve, poor fit]"
14,CC(C)(C)c1ccc(Cn2nnc3c(=O)[nH]c(C4CCCN(C(=O)c5cccs5)C4)nc32)cc1 (stereo not given),"inconclusive: 31.6 µM [activator, single point]"
15,COc1cc(Cl)c(C)cc1NC(=O)c1cc2c(Cl)nc3ccc(C)cc3c2s1,inactive
16,CN(C[C@H](Cc1ccccc1)N(C[C@H](Cc1cccc2ccccc12)N(CCc1ccccc1)N=O)N=O)N=O,"inconclusive: 50.1 µM [activator, single point] and inconclusive: 31.6 µM [activator, single point]"
17,COc1cc(S(=O)(=O)N2CCOCC2)ccc1NC(=O)COC(=O)CC12CC3CC(CC(C3)C1)C2,"inconclusive: 50.1 µM [activator, single point]"
18,Fc1cccc(Cc2c(-c3ccccc3)nc3c4ccccc4ccn23)c1,inactive
19,CC(C)(C)c1ccc(OCCn2cc(C(=O)c3ccco3)c3ccccc32)cc1,inactive
20,CCCOc1ccc(CSCCNC(=S)Nc2ccccc2)cc1,inactive

row,SMILES,Potency
1,COc1ccc(CC(=O)NCc2ccc3c(c2)CCN3C(=O)c2ccccc2)cc1OC,inactive
2,COC(=O)C1=CN(c2cc(C)cc(C)c2)C=C(C(=O)OC)C1c1cccc(F)c1,inactive
3,COc1cc(-c2cc(=O)c3c(O)c(OC)c(OC)c(OC)c3o2)cc(OC)c1OC,inactive
4,COc1ccc(S(=O)(=O)c2c(C)c(NS(=O)(=O)c3ccccc3)cc(C)c2O)cc1,"inconclusive: 14.1 µM [activator, partial curve]"
5,CCn1cc(C(=O)NCc2ccccc2)c(=O)c2cc(S(=O)(=O)N3CCc4ccccc4C3)ccc21,"inconclusive: 31.6 µM [activator, single point]"
6,CC(=O)Nc1nc2c(s1)CCc1ccccc1-2,inactive
7,COc1ccc(/C=N/NC(=O)c2cccc([N+](=O)[O-])c2)cc1OC(=O)c1ccc(C)cc1,"inconclusive: 50.1 µM [activator, single point]"
8,C[C@@H]1ON(C)[C@H]2C[C@H]3c4[nH]c5ccc(-c6ccc7c(c6)OCO7)cc5c4CCN3C(=O)[C@@H]12,"inconclusive: 35.5 µM [activator, single point]"
9,Cn1nc(-c2ccccc2)c(C(=O)Nc2ccc(Cl)cc2)c1Cl,inactive
10,Cc1ccc(S(=O)(=O)N2C[C@H]3C(=O)C[C@@H](c4ccccc4)N(S(=O)(=O)c4cccc(C)c4)[C@H]3C[C@H]2c2ccccc2)cc1,"inconclusive: 14.1 µM [activator, partial curve]"
11,CN(C(=O)c1ccc2c(c1)N(Cc1cccc(Cl)c1)C(=O)c1ccccc1S2(=O)=O)C1CCCCC1,inactive
12,Cc1cccc2cc(CN(Cc3nnnn3C3CCCCC3)C3CCCC3)c3nnnn3c12,inactive
13,COc1cccc(NS(=O)(=O)c2ccc3c(c2)n(C)c(=O)n3C)c1,inactive
14,O=S(=O)(Nc1ccc(-c2cn3ccsc3n2)cc1)c1ccc2c(c1)OCCO2,"inconclusive: 35.5 µM [activator, partial curve, poor fit]"
15,CCOC(=O)[C@@]12CN(C(=O)OC(C)(C)C)CC=C1N(Cc1ccc(OC)cc1)C(=O)[C@H]2CC(=O)N1CCC(c2ccccc2)CC1,"inconclusive: 17.8 µM [activator, partial curve, poor fit]"
16,C#CCOCCOCCOCCNc1nc(N2CCN(C(=O)CCCCCCCCCCNC(=O)[C@@H](CCSC)n3cc(CCO)nn3)CC2)nc(N2CCN(C(=O)CCCCCCCCCCNC(=O)[C@H]([C@@H](C)CC)n3cc(CCCCN=C(N)N)nn3)CC2)n1,active: 8.91 µM
17,O=C(c1ccccc1)C1CC1c1ccccc1 (stereo not given),inactive
18,Cc1ccc(CC(=O)Nc2ccc(S(=O)(=O)Nc3nccc(C)n3)cc2)cc1,inactive
19,C=CC[C@H](CC(=O)N(CCO)Cc1ccccc1)C(=O)N[C@H](COC(=O)[C@@H](CC=C)Cc1ccc(F)cc1)C(C)(C)C,"inconclusive: 28.2 µM [activator, single point]"
20,CCOc1ccc(C(=O)c2cn(CC(=O)Nc3ccc(Cl)cc3)c3cc4c(cc3c2=O)OCO4)cc1,"inconclusive: 50.1 µM [activator, single point]"
